From patent US20260034244A1 (PANOLOS BIOSCIENCE, published 2026)
Where two headings read alike, the source gives them in different places.

T1: VEGF-A (UniProt P15692-4 27-191, limits assumed)
T1 sequence (looked up): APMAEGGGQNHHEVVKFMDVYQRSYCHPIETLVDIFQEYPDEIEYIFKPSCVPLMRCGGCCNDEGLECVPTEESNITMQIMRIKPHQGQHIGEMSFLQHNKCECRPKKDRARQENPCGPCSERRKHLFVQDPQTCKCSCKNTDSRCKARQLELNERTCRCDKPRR

T2: PLGF (UniProt P49763-2 19-149, limits assumed)
T2 construct: also called placental growth factor
T2 sequence (looked up): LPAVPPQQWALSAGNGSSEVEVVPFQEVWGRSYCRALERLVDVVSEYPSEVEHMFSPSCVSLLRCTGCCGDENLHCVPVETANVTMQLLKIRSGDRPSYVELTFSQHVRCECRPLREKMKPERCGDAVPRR

T3: VEGF-A (UniProt P15692-4 27-191, limits assumed)
T3 construct: Analyte at 40, 20, 10 nM; also called vascular endothelial growth factor A
T3 sequence (looked up): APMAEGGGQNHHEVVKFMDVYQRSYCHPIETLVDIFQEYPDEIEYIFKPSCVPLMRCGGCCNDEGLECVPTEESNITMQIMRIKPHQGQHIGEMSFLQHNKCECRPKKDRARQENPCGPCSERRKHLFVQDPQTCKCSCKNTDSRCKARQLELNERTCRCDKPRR


Key:
VEGF-A [1] = biological target: T1, VEGF-A; experiment: cell-based or functional assay
VEGF-A [2] = biological target: VEGF-A (UniProt P15692); experiment: cell-based or functional assay
PLGF [3] = biological target: T2, PLGF; experiment: BLI (Octet), fusion captured on AHC sensor
VEGF-A [4] = biological target: T3, VEGF-A; experiment: BLI (Octet), fusion captured on AHC sensor; fold increase vs C88
VEGF-A [5] = biological target: T3, VEGF-A; experiment: BLI (Octet), fusion captured on AHC sensor
PLGF [6] = biological target: T2, PLGF; experiment: BLI (Octet), fusion captured on AHC sensor; remark: listed apart in the source
VEGF-A [7] = biological target: T3, VEGF-A; experiment: BLI (Octet), fusion captured on AHC sensor; remark: listed apart in the source
PLGF [8] = biological target: T2, PLGF; experiment: BLI (Octet), fusion captured on AHC sensor; fold increase vs C88
VEGF-A [9] = biological target: T3, VEGF-A; experiment: as above; remark: listed apart in the source
PLGF [10] = biological target: T2, PLGF; experiment: as above; remark: listed apart in the source

Binder	VEGF-A inhibition (IC50, µg/ml) (VEGF-A [1]) [µg/mL]	IC50 (µg/ml), luciferase reporter, KDR/NFAT-RE HEK293 cells (VEGF-A [2]) [µg/mL]	Kd (PLGF [3]) [nM]	koff (PLGF [3]) [s⁻¹]	kon (PLGF [3]) [M⁻¹ s⁻¹]	Fold (KD) (VEGF-A [4]) [fold]	Fold (kdis) (VEGF-A [4]) [fold]	Fold (kon) (VEGF-A [4]) [fold]	koff (VEGF-A [5]) [s⁻¹]	kon (VEGF-A [5]) [M⁻¹ s⁻¹]	Kd (PLGF [6]) [nM]	koff (PLGF [6]) [s⁻¹]	kon (PLGF [6]) [M⁻¹ s⁻¹]	koff (VEGF-A [7]) [s⁻¹]	kon (VEGF-A [7]) [M⁻¹ s⁻¹]	Fold (KD) (PLGF [8]) [fold]	Fold (kdis) (PLGF [8]) [fold]	Fold (kon) (PLGF [8]) [fold]	Fold (KD) (VEGF-A [9]) [fold]	Fold (kdis) (VEGF-A [9]) [fold]	other results
C91 (Fc fusion) EFGRPFVEMYSEIPEIIHMTEGRELVIPCRVTSPNITVTLKKFPLDTLIPDGKRIIWDSRKGFIISNATYKEIGLLTCEATVNGHLYKTNYLTHRQTNTIIDVQISTPSPVTLLRGHTLVLNCTATTPLNTRVQMTWSYPDEKNKNASVRRRIDQSNSHANIFYSVLTIDKMQNKDKGLYTCRVRSGPSFKSVNTSVHIYDE[gap - human IgG1 Fc]	0.0389																				
C89 (Fc fusion) EFGRPFVEMYSEIPEIIHMTEGRELVIPCRVTSPNITVTLKKFPLDTLIPDGKRIIWDSRKGFIISNATYKEIGLLTCEATVNGHLYKTNYLTHRQTNTIIDVQISTPRPVKLLRGHTLVLNCTATTPLNTRVQMTWSYPDEKNKRASVRRRIDQSNSHANIFYSVLTIDKMQNKDKGLYTCRVRSGPSFKSVNTSVHIYDLE[gap - human IgG1 Fc]	0.172																				
VEGF-Grab1 (Fc fusion) EFGRPFVEMYSEIPEIIHMTEGRELVIPCRVTSPNITVTLKKFPLDTLIPDGKRIIWDSRKGFIISNATYKEIGLLTCEATVNGHLYKTNYLTHRQTNTIIDVQISTPSPVTLLRGHTLVLNCTATTPLNTRVQMTWSYPDEKNKRASVRRRIDQSNSHANIFYSVLTIDKMQNKDKGLYTCRVRSGPSFKSVNTSVHIYDKALE[gap - human IgG1 Fc]	0.0398	0.0398																			
C88 (Fc fusion) EFGRPFVEMYSEIPEIIHMTEGRELVIPCRVTSPNITVTLKKFPLDTLIPDGKRIIWDSRKGFIISNATYKEIGLLTCEATVNGHLYKTNYLTHRQTNTIIDVQISTPRPVKLLRGHTLVLNCTATTPLNTRVQMTWSYPDEKNKRASVRRRIDQSNSHANIFYSVLTIDKMQNKDKGLYTCRVRSGPSFKSVNTSVHIYDKALE[gap - human IgG1 Fc]	0.0528																				
C88 (Fc fusion, also called VEGFR-wild type protein) EFGRPFVEMYSEIPEIIHMTEGRELVIPCRVTSPNITVTLKKFPLDTLIPDGKRIIWDSRKGFIISNATYKEIGLLTCEATVNGHLYKTNYLTHRQTNTIIDVQISTPRPVKLLRGHTLVLNCTATTPLNTRVQMTWSYPDEKNKRASVRRRIDQSNSHANIFYSVLTIDKMQNKDKGLYTCRVRSGPSFKSVNTSVHIYDKALE[gap - human IgG1 Fc]			0.205	0.000248	1.21e+06	1	1	1	3.51e-05	578000	0.205	0.000248	1.21e+06	3.51e-05	578000	1	1	1	1	1	Kd (VEGF-A [5]): 0.0608 nM; Fold (kon) (VEGF-A [9]): 1 fold; Fold (KD) (PLGF [10]): 1 fold; Fold (kdis) (PLGF [10]): 1 fold; Fold (kon) (PLGF [10]): 1 fold
C113 (Fc fusion, Combination variant based on C88) EFGRPFVEMYSEIPEIIHMTEGRELVIPCRVTSPNITVTLKKFPLDTLIPDGKRIIWDSRKGFIISNATYKEIGLLTCEATVNGHLYKTNYLTHRQTNTIIDVQISTPRPVELCVGETLVLNCTATTPANTRVQMTWSYPDEKNKRASVRRRIDQSNSHANIFYSVLTIDGMTNSDKGLYTCRVRSGPSFKSVNTSVHIYDCSNTGSGGEEKKKEKEKEEQEERSSDTPP[gap - human IgG1 Fc]		0.0299				0.28	0.29	0.96	0.000123	556000	0.114	0.000168	1.47e+06								Kd (VEGF-A [5]): 0.22 nM; Fold (KD) (PLGF [10]): 1.8 fold; Fold (kdis) (PLGF [10]): 1.48 fold; Fold (kon) (PLGF [10]): 1.22 fold
C114 (Fc fusion, Combination variant based on C88) EFGRPFVEMYSEIPEIIHMTEGRELVIPCRVTSPNITVTLKKFPLDTLIPDGKRIIWDSRKGFIISNATYKEIGLLTCEATVNGHLYKTNYLTHRQTNTIIDVQISTPRPVELCVGETLVLNCTATTPDNTRVQMTWSYPDEKNKRASVRRRIDQSNSHANIFYSVLTIDGMTNSDKGLYTCRVRSGPSFKSVNTSVHIYDCGSSGGSSGEPKS[gap - human IgG1 Fc and a few adjoining residues]						> 60.9	> 100	0.95	< 1e-07	547000	0.16	0.000298	1.86e+06								Fold (KD) (PLGF [10]): 1.28 fold; Fold (kdis) (PLGF [10]): 0.83 fold; Fold (kon) (PLGF [10]): 1.53 fold
C109 (Fc fusion, Linker variant based on C88; control without disulfide bond) EFGRPFVEMYSEIPEIIHMTEGRELVIPCRVTSPNITVTLKKFPLDTLIPDGKRIIWDSRKGFIISNATYKEIGLLTCEATVNGHLYKTNYLTHRQTNTIIDVQISTPRPVKLLRGHTLVLNCTATTPLNTRVQMTWSYPDEKNKRASVRRRIDQSNSHANIFYSVLTIDKMQNKDKGLYTCRVRSGPSFKSVNTSVHIYDGSKVDKKV[gap - human IgG1 Fc with changes]			0.247	0.000402	1.63e+06									0.000139	521000	0.83	0.62	1.34	0.23	0.25	Kd (VEGF-A [7]): 0.267 nM; Fold (kon) (VEGF-A [9]): 0.9 fold
C112 (Fc fusion, Disulfide bond variant based on C88) EFGRPFVEMYSEIPEIIHMTEGRELVIPCRVTSPNITVTLKKFPLDTLIPDGKRIIWDSRKGFIISNATYKEIGLLTCEATVNGHLYKTNYLTHRQTNTIIDVQISTPRPVKLCRGHTLVLNCTATTPLNTRVQMTWSYPDEKNKRASVRRRIDQSNSHANIFYSVLTIDKMQNKDKGLYTCRVRSGPSFKSVNTSVHIYDCSKVDKKV[gap - human IgG1 Fc with C220S H224Y (EU numbers)]		0.034	0.0438	4.49e-05	1.03e+06									0.00014	678000	4.68	5.53	0.85	0.29	0.25	Kd (VEGF-A [7]): 0.207 nM; Fold (kon) (VEGF-A [9]): 1.17 fold
